Measurements: the supplement of paper PMC8674133

B1: C2427 (protein)
chain 1: EVQLLESGGGLVQPGGSLRLSCAASGFSFSSYAMSWVRQAPGKGLEWVSGLSGNGVNTYYVDSVKGRFTISRDNSKNTLYLQMNSLRAEDTSVYYCAKVLHGGWFPFDAFDIWGQGTMVTVSS
chain 2: QSVLTQPPSVSAAAGQKVTISCSGSSSNIGNNYVSWYQQLPGTAPKLLIYENNRRPSGIPDRFSGSKSGTSATLGITGLQTGDEATYYCGTWESSLDVVVFGGGTKLTVL
B2: C1229 (protein)
chain 1: QVQLVESGGGVVQPGRSLRLSCAASGFTFSSYALHWVRQAPGKGLEWVALISYDGSNKHYADSVKGRFTISRDNSKNTLYLQMNSLRVEDTAVYYCARDYCGSTSCPYLFDYWGQGTLVTVSS
chain 2: SYELTQPPSVSVAPGETARITCGGNNIGSKSVHWYQQKPGQAPVLVVYDDSDRPSGIPERFSGSNSGNTATLTISRVEAGDEADYYCQVWDISIDHVVVFGGGTKLTVL
B3: C1209 (protein)
chain 1: EVQLLESGGGLVQPGGSLRLSCVGSGFTFSTYAMRWVRQAPGKGLKWISEISATDDSTHYADSVKGRFIISRDNSKNTVYLQMNSLTAEDTAVYYCAKLASTSWTVYFYHAMDVWGQGTTVTVSS
chain 2: SYELTQPPSVSVAPGKTATITCGGDNIGIKSVHWYQQKPGQAPVLVVYDDRDRPSGIPERFSGSNSGNPATLTISRVEAGDEADYYCQLWESSSVVFGGGTKLTVL
B4: C2429 (protein)
chain 1: QVQLQESGPGLVKPSETLSLTCTVSGGSVSSASYYWSWIRQPPGKGLEWIGYIHYSGSTNYNPSLKSRVTISVDMSKNQLSLKLRSVTAADTAVYYCARDSPYYYDSSDYYPASFDPWGQGTLVTVSS
chain 2: QSALTQPASVSGSPGQSITISCTGTSSDVGSYDLVSWYQQHPGKAPKLMIYEVSKRPSGVSYRFSGSKSGNTASLTISGLQAEDEADYYCCSYAGIRLFGGGTKLTVL
B5: C1435 (protein)
chain 1: EVQLLESGGGLVQPGGSLRLSCAASGFTFSSYAMNWVRQAPGKGLEWVSGISGRGGSTYYADSVKGRFTFSRDNSKNTLYLQMNSLRAEDTAVYYCAKGQGAYSAYDPDYYYGMDVWGQGTTVTVSS
chain 2: SYELTQPPSVSVSPGQTARITCSGDALPKQYSYWYQQKPGQAPVLVIYKESERPSGIPERFSGSSSGTTVTLTISRVQAEDEADYYCQSADYSGTYMFGGGTRLTVL
B6: C1212 (protein)
chain 1: QVQLVQSGAEVKKPGSSVKVSCKASGGTFSSYTISWVRQAPGQGLEWMGGIIPILGIADYAQKFQGRVTITADKSTSTAYMELSSLRSEDTAVYYCARGSFRDPAMWGPMPEYFQHWGQGTLVTVSS
chain 2: DIQMTQSPSSLSASVGDRVTITCRASQSVSSFLNWYQQKPGKAPKLLIYAASSLQSGVPSRFSGSGSGTDFTLTISSLQPEDFATYYCQQSYIIPGTFGQGTKLEIK
B7: C1436 (protein)
chain 1: EVQLLESGGGLVQPGGSLRLSCAASGFTFSSYAKTWVRQAPGKGLEWVSGISGSGGSTYYADSVKGRFTISSDNSKNTLYLQMNSLRAEDTAVYYCAGRYCSSNTYSGCYYYGMDVWGQGTTVTVSS
chain 2: B6 chain 2 with V29I, Y87F, I94T, G96Q, L104V
B8: C1238 (protein)
chain 1: QVQLQQWGAGLLKPSETLSLTCAVYGGSFSGYYWSWIRQPPGKGLEWIGEINHSGSTNYSPSLQSRVTISVDTSKNHFSLKLTSVTAADTAVYYCARLVREYSFGLDYWGQGTLVTVSS
chain 2: B6 chain 2 with S31H, K45N, T72S, I93T, G96N
B9: C1210 (protein)
chain 1: QVQLVQSGAEVKKPGSSVKVSCKASGGTFSNYGISWVRQAPGQGLEWMGRIIPMFGIANYAQKFQGRVTITADKSTSTVYMELASLRSEDTAVYYCARDQWESDYYDNSDYYYVDYWGQGTLVTVSS
chain 2: QSVLTQPPSVSGAPGQRVTISCTGSSSNIGAGYDVHWYQQLPGTAPKLLIYDNSNRPSGVPDRFSGSKSGTSASLAITGLQAEDEADYHCQSYDRSLSDVVFGGGTKLTVL
B10: C1243 (protein)
chain 1: QVQLVESGGGVVQPGGSLRLSCAASGFIFSNYGMHWVRQAPGKGLEWVAFIRYDGSNKYYVDSVKGRFTFSRDNSKNTLYLQMNSLRAEDTAVYYCAKDGGPYYYDRSGYARDDYYGMDVWGQGTTVTVSS
chain 2: B9 chain 2 with D52G, H89Y, R95S, D99V, V100W
B11: C1206 (protein)
chain 1: EVQLVESGGGLVQPGGSLRLSCAASGLTVSSNYMNWVRQAPGKGLEWVSVIYSGGSTFYADSVKGRFMISRDNSKNTLYLQMNSLRAEDTAVYYCARESYGMDVWGQGTTVTVSS
chain 2: DIQLTQSPSFLSASVGDRVTITCRASQGISSYLAWYQQKPGKAPKLLIYAASTLQSGVPSRFSGSGSGTEFTLTISSLQPEDFATYYCQQLNSYPPRDTFGQGTKLEIK
B12: C1244 (protein)
chain 1: QVQLVQSGAEVKKPGSSVKVSCKASGGTFSTYTINWVRQAPGQGLEWMGGIIPFLGIANYAQKFQGRVMITADKSTSTAYMELNSLRSEDTAVYYCARQGVLYYESSGLMAHYFDYWGQGTLVTVSS
chain 2: QSVLTQPPSVSGAPGQRVTISCTGSSSNIEAGYDVHWYQQLPGTAPKLLIYGNTNRPSGVPDRFSGSQSGTLASLAITGLQAEDEADYYCQSYDSSLSGSVFGTGTKVTVL
B13: C1215 (protein)
chain 1: QVQLVESGGGVVQPGGSLRLSCAASGFTFSSYGMHWVRQAPGKGLEWVAFILYDGSNKYYVDSVKGRFTISRDNSKNTLYLQMNSLRAEDTAVYYCVKDPVGGYCRGGNCYDFYAMDVWGQGTTVTVSS
chain 2: NFMLTHPHSVSESPGKTVTISCTRSSGSIASNYVQWYQQRPGSSPTTVIYEDNQRPSGVPDRFSGSIDSSSNSASLTISGLKTEDEADYYCQSSDSSTVVFGGGTKLTVL
B14: C1239 (protein)
chain 1: QVQLVQSGAEVKKPGSSVKVSCKASGYTFSSYAISWVRQAPGQGLEWMGGIIPILGIANYAQKFQGRVTITADKSTSTAYMELSSLRSEDTAVYYCARVLYYYDSSGYYRTDDAFDIWGQGTMVTVSS
chain 2: QSVLTQPPSVSGAPGQRVTISCTGSSSNIGAGYDVHWYQQLPGTAPKLLIYGNSNRPSGVPDRFSGSKSGTSASLAITGLQAEDEADYYCQSYDSSLSGHVVFGGGTKLTVL
B15: C1245 (protein)
chain 1: QVQLVQSGAEVKKPGSSVKVSCKASGGTFSRYAISWVRQAPGQGLEWMGRIIPILGIANYAQKFQGRVTITADKSTSIAYMELSSLRSEDTAVYYCARVLFYYDTSGPRSDDAFDIWGQGTMVTVSS
chain 2: B14 chain 2 with S98N, H100S, V101G
B16: C1241 (protein)
chain 1: EVQLVESGGGLVQPGGSLRLSCSASGFTFSSYAMHWVRQAPGKGLEYVSVISSNGGSTYYADSVKGRFTISRDNSKNTLYLQMSSLRAEDTAVYYCVKDWSTCSSTSCYPAGDAFDIWGQGTMVTVSS
chain 2: SYELTQPPSVSVAPGKTARITCGGNNIGSKSVHWYQQKPGQAPVQVIYYDSDRPSGIPERFSGSNSGNTATLTISRVEAGDEADYYCQVWDSSSDHVVFGGGTKLTVL

Each binder was assayed against SARS-CoV-2 Wuhan-Hu-1 spike pseudovirus (assay: pseudovirus neutralization IC50; higher = weaker neutralization).
Protocol: (§1)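 Single-round luciferase reporter pseudovirus mixed with antibody dilutions and put on 293T-ACE2 cells for 48 h; signal relative to no-antibody wells, four-parameter fit.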

Binder	pseudovirus neutralization IC50
B1	> 1 µg/mL
B2	0.697 µg/mL
B3	> 1 µg/mL
B4	> 1 µg/mL
B5	0.352 µg/mL
B6	0.00732 µg/mL
B7	0.00304 µg/mL
B8	> 1 µg/mL
B9	0.141 µg/mL
B10	0.0608 µg/mL
B11	0.0125 µg/mL
B12	0.0101 µg/mL
B13	0.0776 µg/mL
B14	0.414 µg/mL
B15	0.0178 µg/mL
B16	> 1 µg/mL

What follows are binders tested against SARS-CoV-2 Wuhan-Hu-1 spike pseudovirus (assay: pseudovirus neutralization IC90; higher = weaker neutralization).
Protocol: as §1

Binder	pseudovirus neutralization IC90
B1	> 1 µg/mL
B2	> 1 µg/mL
B3	> 1 µg/mL
B4	> 1 µg/mL
B5	> 1 µg/mL
B6	0.119 µg/mL
B7	0.0396 µg/mL
B8	> 1 µg/mL
B9	> 1 µg/mL
B10	0.65 µg/mL
B11	0.0552 µg/mL
B12	> 1 µg/mL
B13	0.412 µg/mL
B14	> 1 µg/mL
B15	0.344 µg/mL
B16	> 1 µg/mL

These binders were tested against SARS-CoV-2 Wuhan-Hu-1 spike receptor-binding domain (assay: ELISA binding EC50; higher = weaker binding; ELISA of recombinant human antibody on coated antigen, from 10 µg/ml in fourfold dilutions; four-parameter fit.).

Binder	ELISA binding EC50
B1	0.00208 µg/mL
B2	0.00946 µg/mL
B3	0.0202 µg/mL
B4	0.00413 µg/mL
B5	0.00419 µg/mL
B6	0.00292 µg/mL
B7	0.00206 µg/mL
B8	0.0591 µg/mL
B9	0.00283 µg/mL
B10	0.00246 µg/mL
B11	0.00249 µg/mL
B12	0.00332 µg/mL
B13	0.00239 µg/mL
B14	0.00377 µg/mL
B15	0.00335 µg/mL
B16	0.00355 µg/mL

Positions count from the first letter of the chain named. Recombinant human monoclonal antibodies (heavy:light variable regions). ELISA EC50 on the named antigen, from 10 µg/ml down; IC50 / IC90 against spike pseudovirus on 293T-ACE2 cells, 48 h; lower = stronger. Calls: IC50 above 1,000 ng/ml = non-neutralizing; EC50 above 2,000 ng/ml = non-binder. The source prints 1000 for neutralization that was not reached; it is given as >1000 ng/ml. A few antibodies were first reported in earlier work of the same group.
